Test results taken from the RNAGym collection of RNA variant scans (doi:10.7554/elife.90254).
The source gives no read counts; variants with many changes may rest on few reads.

B1: OR4K15 (parent)
chain: GUUAACGGUCAUAGGCCAUGGAAACUAGGAGCACCAUUUCGCUGCCAGUGAAGAAAUGAACAAAGAAAAUCUGGGCCAGGCAGGCAUCAAAAGAAAUAGUCUUGCGCUCAACCAGAAAGUCUGUAAUCAUUUUAAGGGUA

Variants of: B1
Test: self-cleavage, relative activity (ratio to wild type); higher = more cleavage; in vitro, sequencing; the parent is a self-cleaving ribozyme

Variant | self-cleavage
GUUAACGGUCAUAGGCCAUGGAAACUGGGAGCACCAUUUCGCUGCCAGUGAAGAAAUGUACAAAGAAGAUCUGGGCCAGGCAGGCAUCAAGAGAAAUAGUCUUGCGCUCAACCAGAAAGUCUGUAAUCAUUUUAAGGGUA | 1.05
GUUAACGGUCAUAGGCCAUGGAAACUAGGAGCACCAUUUCGCUGCCAGUGAAGAAAUGAACAAAGAAAAUCUGGGCCAGGCAGGCAUCAAAAGAAACAGUCAUGCGCUCAACCAGAAAGGCUGUAAUCAUUUUAAGGGUA | 0.47
GUUAACGGUCAUGGGCCAUGGAAACUAGGAGCACCAUUUCGCUGCCAGUGAGGAAAUGAACACGGAAAAUCUGGGCCAGGCAGGCAUCAAAAGAAGUAGUCUUGCGCUCAACCAGAAAGUCUGUAAUCACUUUAAGGGUA | 1.15
GUUAGCGGUCAUAGGCCAUGGAAACUAGGAGCACCAUGUCGCUGCCAGUGAAGAAAUGAACAAAGAAAAUCUGGGCCAGGCAGGCAUCAAAAGAAAUAGUCUUGCGCUCAACCAGAAAGUCUGUAAUCAUUUUAGGGGUA | 1.13
GUUAACGGUCAUAGGCCAUGGAAGCUAGGAGCACCAUUUCGCUGCCAGUGGAGAAAUGAACAAAGAAAAUCUGGGCCAGGCAGGCAUCAAAAGAAAUAGUCUUGCGCUCAACCAGAAAGUCUGUAAUCAUUUCAAGGGUA | 0.7
UUUAACGGUCAUAGGCCAUGGAAACUAGGAGCACCAUUUCGCUGCCAGUGAAGAAAUGAACAAAGAGAAUCUGGGCAAGGCAGGCAUCAAAAGAAAUAGUCUUGCGCUCAACCAGAAAGUCCGUAAUCAUUUUAAGGGUA | 0.78
GUUAACGGUCAUAGGCCAUGGAAACUAGGAGCACCAUUCCGCUGCCAGUGAGGAAAUGAACAAAGAAAACCUGGGCCAGGCAGGCAUCAAAAGAAAUAGUCUUGCGCUCAACCAGAAAGUCUAUAAUCAUUUUAAGGGUA | 1.05
GUUAACGGACAUAGGCCAUGGAGACUAGGAGCACCAUUUCGCUGCCGGUGAAGAAAUGAACAAAGAAAAUCUGGGCCAGGCAGGUAUCAAAAGAAAUAGUCUUGCGCUCAACCAGAAAGUCUGUGAUCAUUUUAAGGGUA | 0.13
GUUAACGGUCAUAGGCCAUGGAAACUAGGAGCACCAUUUCGCUGCCAGUGAUGAAAUGAACAAAGAAAAUCUGGGCCGGGCAGGCAUCAAAAGAAAUAGUCUUGCGCCCAACCAGAAAGUCUGUAAUCAUUUUAAGGGUA | 0.02
GUUAACGGUCAUAGGCCAUGGAAACUAGGAGCACCAUUUCGCUGCCAGUGAAGAAAUGAACAAAGAAAAUCUGGGCCAGGCAGGCAUCAAAAGAAGUAGUCUUGCGCUCAACCAGAAAGUCCGUAAUCAUUCUAAGGGUA | 0.89
GUUAACAGUCAUAGGCCAUGGAAACUAGGAGCACCAUUUCGCUGCCAGUGAAGAAAUGAACAAAGAAAAUCUGGGCCAGGGCGGCAUCAAAAGAAAUAGUCUUGCGCUCAACCAGAAAGUCUGUAAUCAUUUUAAGGGUA | 0.17
GUUAACGGUCAUAGGCCAUGGGAACUAGGAGCACCAUUUCGCUGCCAGUGAAGAAAUGAACAAGGAAAAUCUGGGCCAGGCAGGCAUCAGUAGAAACAGUCUUGCGCUCAACCAGAAAGUCUGUAAUCAUUUUAAGGGUA | 0.25
GUUAGCGGUCAUAGGCCAUGGAAACUAGGAGCACCAUUUCGCUGCCAGUGAAGAAGUGAACAAAGAAAAUCUGGGCCGGGUAGGCAUCAAAAGAAAUAGUCUUGCGCUCAACCAGAAAGUCUGUAAUCAUUUUAAGGGUA | 0.25
GCUAACGGUCAUAGGCCAUGGAGACUAGGAGCACCAUUUCGCUGCCAGUGAAGAAAUGAACAAAGAAAAUCUGGGCCAGGCAGGCAUCAAAAGAAAUAGUCUUGCGCUCAACCAGAAAGUCUGUAAUCAUUAUAAGGGUA | 0.41
GUUAACGGUCAUAGGCCAUGGAAACUAGGAGCACCAUUUCGCUGCCAGUGAUGAAAGGAACAAAGAAAAUCUGGGCCAGGCAGGCAUCAAAAGAAAUAGUCUUGCGCUCAACCAGAAAGUCUGUGAUCACUUUAAGGGUA | 0.26
GAAAACGGUCAUAGGCCAUGGAAACUAGGAGCACCAUUUCGCUGCCAGUGAAGAAAUGAACAAAGAAAAUCUGGGCCAGGCAGGCAUCAGAAGAAAUAGUCUUGCGCUCAACCAGAAAGUCUGUAAUCAUUUUAAGGGUA | 0.84
GUUAACGGUCAUAGGCCAUGGAAACUAGGAGCACCAUUUCGCUGCCAGUGAAGAAAUGAACAAAGAAAAUCUGGGCCAGGCAGGCAUCAAAAGAAGUAGUCCUGCGCUCAACCAGAAAGUCUGUAAUCACUUUAAGGGUA | 1.24
GUUAACGGUCAUAGGCCAUGGAAACUAGGAGCACCAUUUCGCUGCCAGUGUAGAAAUGAACAAAGAAGAUCCGGGCCAGGCAGGCAUCAAAAGAAAUAGUCUUGCGCUCAACCAGAAAGUCUGUAAUCAUUUUAAGGGUA | 0.37
GUUAACGGUCAUAGGCCAUGGAAACUAGGAGCACCAUUUCGCUGCCAGUGAAGAAAUGAACGAAGAAAAUCUGGGCCUGGCAGGCAUCGAAAGAAAUAGUCUUGCGCUCAACCAGAAAGUCUGCAAUCAUUUUAAGGGUA | 0.26
GUUAACGGUCAUAGGCCAUGGAAACUAGGGGCACCAUUUCGCUGCCAGUGAAGAAAUGAACAAAGAAAAUCUGGGCCAGGCAGGCACCAAAAGAGAUAGUCUUGCGCUCAACCAGAAAGUCUGUAAUCAUUUUAAGGGUA | 1.65
GUUAACGGUCAUAGGCCAUGGAAACUAGGAGCUCCAUUCCGCUGCCAGCGAAGAAAUGAACAAAGAAAAUCUGGGCCAGGCAGGCAUCAAAAGAAAUAGUCUUGCGCUCAACCAGAAAGUCUGUAAUCAUUUUAAGGGUA | 1.39
